Source: patent US20260274980A1
No constants are given. Whether binding was seen depends on the method and setting. Some binding calls cover weakened binding; strength is not graded here.

Assays:
[1] = target: h/m apical domain chimera (human apical domain grafted on mouse TfR1 ectodomain) (human/mouse chimera); test: indirect ELISA on plate coated with 1 µg/ml h/m apical domain chimera; dilution series of IgG, HRP anti-mouse IgG, OD450; x axis printed 'TfR (ng/ml)' [C]
[2] = target: cynomolgus TfR1 (recombinant, construct not stated) (cynomolgus); test: BLI, IgG captured from hybridoma supernatant, 250 nM cTfR1
[3] = target: h/m protease-like domain chimera (human protease like domain grafted on mouse TfR1 ectodomain) (human/mouse chimera); test: indirect ELISA, coated antigen
[4] = target: cynomolgus TfR1 (recombinant, construct not stated) (cynomolgus); test: BLI, IgG captured from hybridoma supernatant, 250 nM cTfR1 in solution
[5] = target: hTfR1 (recombinant, construct not stated) (human) (UniProt P02786); test: BLI (Octet): mouse IgG captured from crude hybridoma supernatant on anti-mouse capture sensors; 250 nM hTfR1 in solution, 120 s association, 90 s dissociation [panel C]
[6] = target: hTfR1 (recombinant, construct not stated) (human) (UniProt P02786); test: BLI, IgG captured from hybridoma supernatant, 250 nM hTfR1
[7] = target: h/m protease-like domain chimera (human protease like domain grafted on mouse TfR1 ectodomain) (human/mouse chimera); test: indirect ELISA, coated antigen 1 µg/ml, mouse IgG dilution series
[8] = target: cynomolgus TfR1 (recombinant, construct not stated) (cynomolgus); test: ELISA, hybridoma supernatant
[9] = target: h/m apical domain chimera (human apical domain grafted on mouse TfR1 ectodomain) (human/mouse chimera); test: indirect ELISA, coated antigen 1 µg/ml
[10] = target: h/m helical domain chimera (human helical domain grafted on mouse TfR1 ectodomain) (human/mouse chimera); test: indirect ELISA, coated antigen 1 µg/ml
[11] = target: h/m helical domain chimera (human helical domain grafted on mouse TfR1 ectodomain) (human/mouse chimera); test: indirect ELISA on plate coated with 1 µg/ml h/m helical domain chimera; dilution series of IgG, HRP anti-mouse IgG, OD450; x axis printed 'TfR (ng/ml)' [E]
[12] = target: h/m protease-like domain chimera (human protease like domain grafted on mouse TfR1 ectodomain) (human/mouse chimera); test: indirect ELISA on plate coated with 1 µg/ml h/m protease-like domain chimera; dilution series of IgG, HRP anti-mouse IgG, OD450; x axis printed 'TfR (ng/ml)' [D]
[13] = target: cynomolgus TfR1 (recombinant, construct not stated) (cynomolgus); test: BLI (Octet): mouse IgG captured from crude hybridoma supernatant on anti-mouse capture sensors; 250 nM cTfR1 in solution, 120 s association, 90 s dissociation [panel C]
[14] = target: hTfR1 (recombinant, construct not stated) (human) (UniProt P02786); test: BLI, IgG captured from hybridoma supernatant, 250 nM hTfR1 in solution
[15] = target: hTfR1 (recombinant, construct not stated) (human) (UniProt P02786); test: BLI epitope binning, 200 nM; competitor 15G11-1 pre-bound
[16] = target: hTfR1 (recombinant, construct not stated) (human) (UniProt P02786); test: BLI epitope binning (Octet): biotinylated hTfR1 on streptavidin sensors, 200 nM antibody in solution
[17] = target: hTfR1 (recombinant, construct not stated) (human) (UniProt P02786); test: BLI (Octet): mouse IgG captured from crude hybridoma supernatant on anti-mouse capture sensors; 250 nM hTfR1 in solution, 120 s association, 90 s dissociation [panel A]
[18] = target: cynomolgus TfR1 (recombinant, construct not stated) (cynomolgus); test: BLI (Octet): mouse IgG captured from crude hybridoma supernatant on anti-mouse capture sensors; 250 nM cTfR1 in solution, 120 s association, 90 s dissociation [panel A]
[19] = target: cynomolgus TfR1 (recombinant, construct not stated) (cynomolgus); test: BLI, cTfR1 captured on biotinylated holo-transferrin, Fab 15 nM
[20] = target: cynomolgus TfR1 (recombinant, construct not stated) (cynomolgus); test: BLI (Octet): cTfR1 held on streptavidin sensors by biotinylated human holo-transferrin; 15 nM Fab in solution, 120 s association, 300 s dissociation [middle column, lower panel (cTfR1]
[21] = target: cynomolgus TfR1 (recombinant, construct not stated) (cynomolgus); test: BLI (Octet): mouse IgG captured from crude hybridoma supernatant on anti-mouse capture sensors; 250 nM cTfR1 in solution, 120 s association, 90 s dissociation [panel B]

Binder	binding [1]	binding [2]	binding [3]	binding [4]	binding [6]	binding [7]	binding [8]	binding [9]	binding [10]	binding [11]	binding [12]	binding [14]	also measured
37D10 (antibody, IgG2a, V domains shown) VH: QVQLQQSGAELVRPGTSVKISCKASGYAFTNYWLGWVKQRPGHGLEWIGDIFPGSDNTYYNEKFKGKATLTADKSSSTAYMQLSSLASEDSAVYFCARSGNFYAMDYWGQGTSVTVSS VL: ENVLTQSPAIMSASPGEKVTMTCSASSSVNYMNWYQQKSSTFPKLWIYDTSKLASGVPGRFSGSGSGKFYSLTISSMEAEDVATYYCFQGSGYPFTFGSGTKLEIK	no binding (tested: about 650 ng/ml)	binds	binds	binds	binds	binds	binds	no binding	no binding	no binding (tested: about 650 ng/ml)	binds	binds	binding [5]: binds; binding [13]: binds
24B4 (antibody, V domains shown) VH: EVQLQQFGAELVKPGTSVKISCKASGYTFTDYNMDWVKQGHGKGLEWIGDINPNYDTTSYSQKFKGKATLTVDKSSSTAYMELRSLTSEDTAVYYCARSEAGNYYWYFDVWGAGTTVTVSS VL: DIVMSQSPSSLAVSVGEKVTMSCKSSQSLLYSSNRKNYLAWYRQKPGQSPKLLIYWASTRESGVPDRFTGSGSGTDFTLTISSVKAEDLAVYSCQQYYNYPYTFGGGTKLEIK	no binding (tested: about 650 ng/ml)	binds	binds	binds	binds	binds	binds	no binding	no binding	no binding (tested: about 650 ng/ml)	binds	binds	binding [15]: binds; binding [16]: binds; binding [17]: binds; binding [18]: binds
26D3-Fab (Fab, V domains shown) VH: EVQLQQFGVELVKPGASVKISCKASGYIFTDYNMDWVKQSHGKSLEWIGDINPDYDTTSYNEKFKGKATLTVDKSSSTAYMELRSLTSEDTAVYYCARGGYSGSSYYHPMDYWGQGTSVTVSS VL: DIVMSQSPSSLAVSVGEKITMSCKSSQSLLYSTNQKNYLAWYQQKPGQSPELLIYWASTRESGVPDRFTGSGSGTDFTLTISNVRAEDLAVYYCQQYFIYPRTFGGGTKLEIK	–	–	–	–	–	–	–	–	–	–	–	–	binding [19]: binds; binding [20]: binds
26D3 (antibody, V domains shown) VH: EVQLQQFGVELVKPGASVKISCKASGYIFTDYNMDWVKQSHGKSLEWIGDINPDYDTTSYNEKFKGKATLTVDKSSSTAYMELRSLTSEDTAVYYCARGGYSGSSYYHPMDYWGQGTSVTVSS VL: DIVMSQSPSSLAVSVGEKITMSCKSSQSLLYSTNQKNYLAWYQQKPGQSPELLIYWASTRESGVPDRFTGSGSGTDFTLTISNVRAEDLAVYYCQQYFIYPRTFGGGTKLEIK	no binding (tested: about 650 ng/ml)	binds	binds	binds	–	binds	binds	no binding	–	–	binds	–	binding [21]: binds
